B1: TEV protease; numbered along this chain (parent)
chain: MGESLFKGPRDYNPISSSICHLTNESDGHTTSLYGIGFGPFIITNKHLFRRNNGTLVVQSLHGVFKVKDTTTLQQHLVDGRDMIIIRMPKDFPPFPQKLKFREPQREERICLVTTNFQTKSMSSMVSDTSCTFPSGDGIFWKHWIQTKDGQCGSPLVSTRDGFIVGIHSASNFTNTNNYFTSVPKNFMELLTNQEAQQWVSGWRLNADSVLWGGHKVFMVKPEEPFQPVKEATQL

In the assay the parent is B1. The assay is described as follows: raw area under fraction-flipped curve 0-4 h after induction (AUC4h, not background-subtracted), DNA-recorder readout of cleavage of the substrate (dimensionless); higher = more cleavage of the substrate by the protease variant. To be noted: temperature: 34 °C; time window: 0-4 h after rhamnose induction. The method, then:
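In vivo DNA recorder in E. coli TOP10(DE3) ΔrhaA at 34 °C. Each TEVp single-site mutant (parent TEVp 0) is paired with a single-site variant of the 7-mer TEVs (canonical ENLYFQ|S). The substrate sits between flexible linkers in a Bxb1-sfGFP-TEVs-SsrA fusion, so cleavage stabilises Bxb1 and speeds flipping of a recombination array, read by NGS. The value is the raw area under the fraction-flipped curve over 0-4 h after rhamnose induction (AUC4h), with ≥20 reads per time point. It is not background-subtracted; inactive controls average about 0.047.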

The other results are listed elsewhere or left out. The full chains were built here from the parent and the listed change. Values near 0.05 are background.
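Also: Bxb1 expression induced with 0.2% (w/v) L-rhamnose at OD600 near 0.5, cultures sampled hourly, flipped fraction per protease–substrate barcode pair counted by paired-end Illumina sequencing.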

As to MGESLFKGPRDYNPYSSSICHLTNESDGHTTSLYGIGFGPFIITNKHLFRRNNGTLVVQSLHGVFKVKDTTTLQQHLVDGRDMIIIRMPKDFPPFPQKLKFREPQREERICLVTTNFQTKSMSSMVSDTSCTFPSGDGIFWKHWIQTKDGQCGSPLVSTRDGFIVGIHSASNFTNTNNYFTSVPKNFMELLTNQEAQQWVSGWRLNADSVLWGGHKVFMVKPEEPFQPVKEATQL [I15Y], the “area with substrate ENLYFQA” value worked out at 0.105, the “area with substrate ENLYFQC” value stood at 0.0999, the “area with substrate ENLYFQF” value was 0.0475 and the “area with substrate ENLYFQG” value is 0.0957. For the same variant, the “area with substrate ENLYFQH” value came to 0.0909, the “area with substrate ENLYFQI” value was 0.0597, the “area with substrate ENLYFQK” value came out at 0.0598 and the “area with substrate ENLYFQL” value turned out to be 0.0613. The “area with substrate ENLYFQM” value was determined as 0.098, the “area with substrate ENLYFQN” value turned out to be 0.0843, the “area with substrate ENLYFQP” value amounted to 0.0574 and the “area with substrate ENLYFQQ” value is 0.0676. Besides, the “area with substrate ENLYFQR” value came to 0.0588, the “area with substrate ENLYFQS” value came to 0.0984, the “area with substrate ENLYFQT” value came out at 0.0724 and the “area with substrate ENLYFQV” value is 0.0748. The “area with substrate ENLYFQW” value was found to be 0.0629 and the “area with substrate ENLYFQY” value was found to be 0.0793.
Turning to MGESLFKGPRDYNPWSSSICHLTNESDGHTTSLYGIGFGPFIITNKHLFRRNNGTLVVQSLHGVFKVKDTTTLQQHLVDGRDMIIIRMPKDFPPFPQKLKFREPQREERICLVTTNFQTKSMSSMVSDTSCTFPSGDGIFWKHWIQTKDGQCGSPLVSTRDGFIVGIHSASNFTNTNNYFTSVPKNFMELLTNQEAQQWVSGWRLNADSVLWGGHKVFMVKPEEPFQPVKEATQL [I15W], the “area with substrate ENLYFQA” value was determined as 0.0866, the “area with substrate ENLYFQC” value was 0.101, the “area with substrate ENLYFQD” value was determined as 0.0831 and the “area with substrate ENLYFQF” value amounted to 0.0718. Also, the “area with substrate ENLYFQG” value came out at 0.1, the “area with substrate ENLYFQH” value came to 0.0549, the “area with substrate ENLYFQI” value is 0.0642 and the “area with substrate ENLYFQK” value came out at 0.0549. Also, the “area with substrate ENLYFQL” value was found to be 0.0641, the “area with substrate ENLYFQM” value turned out to be 0.0832, the “area with substrate ENLYFQN” value amounted to 0.0626 and the “area with substrate ENLYFQP” value amounted to 0.06. Further, the “area with substrate ENLYFQQ” value is 0.0743, the “area with substrate ENLYFQR” value is 0.0441, the “area with substrate ENLYFQS” value was determined as 0.0934 and the “area with substrate ENLYFQT” value worked out at 0.0653. The “area with substrate ENLYFQV” value came out at 0.0609 and the “area with substrate ENLYFQW” value amounted to 0.0777.
For MGESLFKGPRDYNPISNSICHLTNESDGHTTSLYGIGFGPFIITNKHLFRRNNGTLVVQSLHGVFKVKDTTTLQQHLVDGRDMIIIRMPKDFPPFPQKLKFREPQREERICLVTTNFQTKSMSSMVSDTSCTFPSGDGIFWKHWIQTKDGQCGSPLVSTRDGFIVGIHSASNFTNTNNYFTSVPKNFMELLTNQEAQQWVSGWRLNADSVLWGGHKVFMVKPEEPFQPVKEATQL [S17N], the “area with substrate ENLYFQA” value is 0.0984, the “area with substrate ENLYFQC” value is 0.0788, the “area with substrate ENLYFQD” value worked out at 0.0819 and the “area with substrate ENLYFQG” value stood at 0.108. Further, the “area with substrate ENLYFQH” value amounted to 0.0789, the “area with substrate ENLYFQI” value was 0.0575, the “area with substrate ENLYFQK” value stood at 0.0672 and the “area with substrate ENLYFQL” value amounted to 0.0652. The “area with substrate ENLYFQM” value amounted to 0.0879, the “area with substrate ENLYFQN” value was 0.0728, the “area with substrate ENLYFQP” value stood at 0.0531 and the “area with substrate ENLYFQQ” value came out at 0.0655. For the same variant, the “area with substrate ENLYFQR” value came to 0.0565, the “area with substrate ENLYFQS” value was 0.104, the “area with substrate ENLYFQT” value was determined as 0.0537 and the “area with substrate ENLYFQW” value amounted to 0.0619. Further, the “area with substrate ENLYFQY” value was found to be 0.076.
Consider MGESLFKGPRDYNPISRSICHLTNESDGHTTSLYGIGFGPFIITNKHLFRRNNGTLVVQSLHGVFKVKDTTTLQQHLVDGRDMIIIRMPKDFPPFPQKLKFREPQREERICLVTTNFQTKSMSSMVSDTSCTFPSGDGIFWKHWIQTKDGQCGSPLVSTRDGFIVGIHSASNFTNTNNYFTSVPKNFMELLTNQEAQQWVSGWRLNADSVLWGGHKVFMVKPEEPFQPVKEATQL [S17R], for which the “area with substrate ENLYFQA” value came out at 0.086, the “area with substrate ENLYFQC” value worked out at 0.117, the “area with substrate ENLYFQH” value amounted to 0.112 and the “area with substrate ENLYFQK” value stood at 0.0458. For the same variant, the “area with substrate ENLYFQL” value amounted to 0.0611, the “area with substrate ENLYFQM” value worked out at 0.0755, the “area with substrate ENLYFQN” value turned out to be 0.0997 and the “area with substrate ENLYFQP” value stood at 0.0531. In addition, the “area with substrate ENLYFQQ” value came out at 0.0753, the “area with substrate ENLYFQR” value stood at 0.0436, the “area with substrate ENLYFQS” value was 0.111 and the “area with substrate ENLYFQT” value amounted to 0.0545. Also, the “area with substrate ENLYFQV” value amounted to 0.0823, the “area with substrate ENLYFQW” value came to 0.07 and the “area with substrate ENLYFQY” value was 0.0825.
Take MGESLFKGPRDYNPISSSICHLTNESDGHTTSLYGIGFGPFIITNKHLFRRNNGTLVVQSLHGVFKVKDTTTLQQHLVDGRDMIIIRMPLDFPPFPQKLKFREPQREERICLVTTNFQTKSMSSMVSDTSCTFPSGDGIFWKHWIQTKDGQCGSPLVSTRDGFIVGIHSASNFTNTNNYFTSVPKNFMELLTNQEAQQWVSGWRLNADSVLWGGHKVFMVKPEEPFQPVKEATQL [K90L]: the “area with substrate ENLYFQA” value is 0.0931, the “area with substrate ENLYFQC” value is 0.12, the “area with substrate ENLYFQD” value was determined as 0.071 and the “area with substrate ENLYFQF” value is 0.0926. In addition, the “area with substrate ENLYFQG” value turned out to be 0.0981, the “area with substrate ENLYFQI” value was 0.0635, the “area with substrate ENLYFQK” value is 0.0384 and the “area with substrate ENLYFQL” value came to 0.0736. The “area with substrate ENLYFQM” value is 0.0968, the “area with substrate ENLYFQN” value is 0.0743, the “area with substrate ENLYFQP” value came to 0.0709 and the “area with substrate ENLYFQQ” value turned out to be 0.0769. The “area with substrate ENLYFQR” value came out at 0.0561, the “area with substrate ENLYFQS” value was 0.109, the “area with substrate ENLYFQT” value was found to be 0.0578 and the “area with substrate ENLYFQV” value came out at 0.065. Also, the “area with substrate ENLYFQW” value was found to be 0.0461 and the “area with substrate ENLYFQY” value came out at 0.0816.
Turning to MGESLFKGPRDYNPISSSICHLTNESDGHTTSLYGIGFGPFIITNKHLFRRNNGTLVVQSLHGVFKVKDTTTLQQHLVDGRDMIIIRMPKDFPPFPQKLKFREPQREERICLVTTNFQTKSMSSMVSDTSCTFPSGDGIFWKHWIQTKDGQCGSPLVSTRDGFIVGIHSASNFTNTNNYFTSVPKNFMELLTNQEAQQWVSGWRLNADSVLWGGHKVFMVKQEEPFQPVKEATQL [P222Q], the “area with substrate ENLYFQA” value is 0.0819, the “area with substrate ENLYFQC” value was 0.0744, the “area with substrate ENLYFQF” value was 0.0728 and the “area with substrate ENLYFQG” value was 0.104. Further, the “area with substrate ENLYFQH” value was found to be 0.086, the “area with substrate ENLYFQI” value is 0.0861, the “area with substrate ENLYFQK” value worked out at 0.0589 and the “area with substrate ENLYFQL” value was found to be 0.06. Also, the “area with substrate ENLYFQM” value turned out to be 0.0849, the “area with substrate ENLYFQN” value came out at 0.0729, the “area with substrate ENLYFQR” value was 0.0447 and the “area with substrate ENLYFQS” value was found to be 0.0981. Moreover, the “area with substrate ENLYFQT” value is 0.0662, the “area with substrate ENLYFQV” value amounted to 0.0417, the “area with substrate ENLYFQW” value was 0.0678 and the “area with substrate ENLYFQY” value came out at 0.0615.
MGESLFKGPRDYNPISSSICHLTNESDGHTTSLYGIGLGPFIITNKHLFRRNNGTLVVQSLHGVFKVKDTTTLQQHLVDGRDMIIIRMPKDFPPFPQKLKFREPQREERICLVTTNFQTKSMSSMVSDTSCTFPSGDGIFWKHWIQTKDGQCGSPLVSTRDGFIVGIHSASNFTNTNNYFTSVPKNFMELLTNQEAQQWVSGWRLNADSVLWGGHKVFMVKPEEPFQPVKEATQL [F38L]: the “area with substrate ENLYFQA” value is 0.0828, the “area with substrate ENLYFQC” value stood at 0.0932, the “area with substrate ENLYFQD” value amounted to 0.0638 and the “area with substrate ENLYFQE” value was found to be 0.064. In addition, the “area with substrate ENLYFQF” value turned out to be 0.0701, the “area with substrate ENLYFQG” value was 0.0857, the “area with substrate ENLYFQH” value is 0.067 and the “area with substrate ENLYFQI” value came to 0.0532. For the same variant, the “area with substrate ENLYFQK” value was found to be 0.0605, the “area with substrate ENLYFQL” value was 0.0491, the “area with substrate ENLYFQM” value turned out to be 0.0816 and the “area with substrate ENLYFQN” value worked out at 0.0626. For the same variant, the “area with substrate ENLYFQP” value turned out to be 0.0557, the “area with substrate ENLYFQQ” value stood at 0.0697, the “area with substrate ENLYFQR” value stood at 0.0543 and the “area with substrate ENLYFQS” value came to 0.0864. The “area with substrate ENLYFQT” value is 0.046, the “area with substrate ENLYFQV” value came to 0.0601, the “area with substrate ENLYFQW” value is 0.0592 and the “area with substrate ENLYFQY” value amounted to 0.0544.
Regarding MGESLFKGPRDYNPISSSICHLTNESDGHTTSLYGIGFGPFIITKKHLFRRNNGTLVVQSLHGVFKVKDTTTLQQHLVDGRDMIIIRMPKDFPPFPQKLKFREPQREERICLVTTNFQTKSMSSMVSDTSCTFPSGDGIFWKHWIQTKDGQCGSPLVSTRDGFIVGIHSASNFTNTNNYFTSVPKNFMELLTNQEAQQWVSGWRLNADSVLWGGHKVFMVKPEEPFQPVKEATQL [N45K], the “area with substrate ENLYFQA” value came out at 0.0677, the “area with substrate ENLYFQC” value is 0.0519, the “area with substrate ENLYFQE” value stood at 0.0576 and the “area with substrate ENLYFQF” value is 0.0323. In addition, the “area with substrate ENLYFQG” value was 0.0668, the “area with substrate ENLYFQH” value turned out to be 0.0663, the “area with substrate ENLYFQI” value turned out to be 0.0525 and the “area with substrate ENLYFQK” value stood at 0.0696. The “area with substrate ENLYFQL” value is 0.0537, the “area with substrate ENLYFQM” value was 0.0544, the “area with substrate ENLYFQN” value stood at 0.0692 and the “area with substrate ENLYFQP” value was 0.0541. For the same variant, the “area with substrate ENLYFQR” value turned out to be 0.0582, the “area with substrate ENLYFQS” value worked out at 0.0598, the “area with substrate ENLYFQT” value is 0.042 and the “area with substrate ENLYFQW” value amounted to 0.0557. In addition, the “area with substrate ENLYFQY” value was found to be 0.0601.
